# According to paper PMC6919601, “Identification of Plasmodium dipeptidyl aminopeptidase allosteric inhibitors by high throughput screening” (PLoS ONE, 2019):
# About 230 (0.21%) of roughly 110,000 compounds showed an effect of 50% or more. The list shows a part of the results.
# Target: DPAP1 (Plasmodium falciparum, UniProt Q8IIJ9)
# Assay: primary screen, percent inhibition; read by cleavage of a fluorogenic dipeptide substrate; higher = more effect of the substance
# Design: species or system P. falciparum D10 trophozoite lysates; single well
# 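Further: 30 min substrate incubation versus DMSO and 10 µM JCP410 controls.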
# DPAP1, sequence (Q8IIJ9 whole entry, looked up): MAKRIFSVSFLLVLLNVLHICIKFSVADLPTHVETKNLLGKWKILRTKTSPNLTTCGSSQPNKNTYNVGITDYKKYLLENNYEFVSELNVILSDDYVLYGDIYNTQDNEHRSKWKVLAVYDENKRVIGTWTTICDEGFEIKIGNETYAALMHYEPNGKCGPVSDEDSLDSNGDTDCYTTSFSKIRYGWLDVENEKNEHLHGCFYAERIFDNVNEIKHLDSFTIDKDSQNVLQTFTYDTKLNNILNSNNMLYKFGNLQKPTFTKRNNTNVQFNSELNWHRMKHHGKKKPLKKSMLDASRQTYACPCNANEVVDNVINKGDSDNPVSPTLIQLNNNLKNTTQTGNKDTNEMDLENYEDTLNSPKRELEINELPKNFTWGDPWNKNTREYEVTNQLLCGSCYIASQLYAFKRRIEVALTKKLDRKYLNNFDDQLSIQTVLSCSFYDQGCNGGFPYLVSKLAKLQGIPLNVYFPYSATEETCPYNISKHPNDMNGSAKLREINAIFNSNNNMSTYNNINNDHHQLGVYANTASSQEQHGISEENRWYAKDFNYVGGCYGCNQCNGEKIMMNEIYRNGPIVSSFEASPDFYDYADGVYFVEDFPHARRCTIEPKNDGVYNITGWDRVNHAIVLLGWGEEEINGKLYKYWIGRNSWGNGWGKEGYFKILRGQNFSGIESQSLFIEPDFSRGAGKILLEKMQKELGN
row,SMILES,% Inhibition @ 10 uM [%]
1,CC(=O)N1CCC2(CC1)Oc1ccccc1C(=O)N2CC(=O)N1CCC(Cc2ccccc2)CC1,-1.6
2,CC(C)(C)Cc1ccc(C2C(=O)c3ccccc3C2=O)cc1,5.77
3,CCOC(=O)c1cnc(SCC(=O)N[C@]23C[C@H]4C[C@H](C[C@H](C4)C2)C3)nc1N,0.558
4,COc1ccc(N2C(=O)CC(Cc3ccccc3)C2=O)cc1 (stereo not drawn),0.661
5,CCC(C(=O)N1CCOCC1)n1nc(C)c2c(C)n(-c3ccccc3)nc2c1=O (stereo not drawn),-1.21
6,CN(C)c1ccc(NS(=O)(=O)c2ccccc2)cc1,-1.78
7,O=C(Cn1nc(Cc2ccncc2)c2ccccc2c1=O)N(Cc1ccco1)C1CCCCC1,-6.52
8,Cc1cc(C)c(NC(=O)CNC(C)(C)C)c(C)c1,1.29
9,Cc1ccc(CC(CC(=O)O)C(=O)Nc2ccc(Cl)cc2)cc1 (stereo not drawn),-3.49
10,FC(F)(F)c1cccc(-c2nnn3c2nc(NCC2CCCO2)c2ccccc23)c1 (stereo not drawn),5.09
11,Cc1ccccc1OCC(=O)Nc1sc2c(c1C(=O)NC1CCS(=O)(=O)C1)CCCC2 (stereo not drawn),3.21
12,CCOC(=O)c1c(N2C(=O)C=CC2=O)sc(C)c1C,3.8
13,COCc1cc(C)nc(SCC(=O)Nc2cc(Cl)ccc2Cl)c1C#N,-5.01
14,CCOc1ccc(N(C(C)C(=O)NCc2ccncc2)S(C)(=O)=O)cc1 (stereo not drawn),-2.8
15,CC1=C(C)CC2C(=O)N(c3c(C)cccc3C)C(=O)C2C1 (stereo not drawn),18
16,c1cc2c[nH]nc2cc1NCC1CCCCC1,-4.75
17,COc1ccc(Nc2nc(-c3c(C)nc4ncccn34)cs2)cc1,-0.711
18,Cc1cc(Br)ccc1OCC(=O)N1CCc2ccccc21,0.245
19,COc1ccccc1OCC(=O)NCc1ccccc1,-2.3
20,O=C(Cn1c2c(c(-c3ccccc3Cl)cc1=O)CCC2)NCCc1ccc(Cl)cc1,-4.53
21,Clc1ccc2ncnc(-c3ccccc3)c2c1,0.132
22,CCN(CC)CCCNC(=O)C(C)n1nc(C)c2sc3ccccc3c2c1=O (stereo not drawn),1.72

row,SMILES,% Inhibition @ 10 uM [%]
1,c1ccc(CN2CCC(NCC3CCCCC3)CC2)cc1,-3.6
2,O=C(Nc1cc(C(F)(F)F)ccc1Cl)c1ccc2c(c1)OCO2,5.41
3,CN1C(=O)c2[nH]nc(-c3ccc(F)cc3)c2C1c1ccc(O)cc1 (stereo not drawn),-4.67
4,COCCCNC(=O)c1c(OC)cccc1OC,2.05
5,Cc1nnc(N2CCC(C(=O)NCCCN3CCN(C)CC3)CC2)c2nn(-c3ccccc3)c(C)c12,3.99
6,CCCn1c2c(c(=N)c3c1CCC3)CCCC2,-4.68
7,O=C(/C=C/c1ccc(Cl)cc1)N1CCOCC1,3
8,CCOc1ccc(C2c3c(oc4ccccc4c3=O)C(=O)N2c2nnc(C(C)C)s2)cc1OC (stereo not drawn),4.99
9,O=C(c1nn2c(C(F)(F)F)cc(-c3cccs3)nc2c1Br)N1CCOCC1,9.91
10,CCOc1ccc(-n2cccc2/C=C2\C(=N)N3N=CSC3=NC2=O)cc1,-3.35
11,O=C(Nc1ccccc1N1CCN(C(=O)c2ccccc2)CC1)c1cccnc1Cl,-4.12
12,CCOc1ccc(N2CN=c3s/c(=C\c4cccnc4)c(=O)n3C2)cc1,2.36
13,O=[N+]([O-])c1ccc(CNc2ccc(F)cc2)s1,-2.34
14,O=C(Cc1ccc(-n2cccc2)cc1)NC1CCCCCC1,1.2
15,O=C(Cc1ccccc1F)Nc1ccc(Cl)nc1,-0.872
16,CCCCC(=O)C1=C(NC(C)C)CC(C)(C)CC1=O,3.46
17,COc1ccc(C2c3c(n(C)c4ccccc34)C(=O)N2CC(=O)NCc2ccc3c(c2)OCO3)cc1 (stereo not drawn),3.42
18,COc1ccc(C2=NOC(C(=O)N3CCCCC3)C2)cc1OC (stereo not drawn),1.24
19,CC(=O)OC[C@@H](C#N)NC(=O)[C@H](CC1CCCCC1)NC(=O)OCc1ccccc1,-1.41
20,C=CCCC(C#N)NC(=O)[C@H](CC(C)C)NC(=O)OCc1ccccc1 (stereo partly drawn),1.71
21,CSc1nc(SC)c2c3c(sc2n1)CN(C)CC3,40.1
22,Nc1nc(=O)n(CC(O)C(=O)O)cc1Br (stereo not drawn),0.0289

row,SMILES,% Inhibition @ 10 uM [%]
1,c1ccc2cc(CC3=NCCN3)ccc2c1,-0.25
2,O=C1CSC2(C(=O)Nc3ccccc32)N1c1ccccc1 (stereo not drawn),-6.36
3,Cc1c(Cl)cccc1NC(=O)c1cccnc1Cl,-5.92
4,Cc1nn(CC(=O)N2CCC3(CC2)OCCO3)c(=O)c2cccn12,-1.17
5,CC(C)(C)c1ccccc1OCCCn1ccnc1,9.64
6,O=[N+]([O-])c1ccc(CN2CCN(c3ccc(Cl)cc3)CC2)o1,1.2
7,Cc1cc(C)n2c(SCc3c(C)noc3C)nnc2n1,2
8,O=C(O)c1cccc([N+](=O)[O-])c1C(=O)Nc1ccc2ccccc2c1,-1.42
9,Cc1cccc(N2CCc3c2nc2ccccc2c3N)c1,0.847
10,CCOC(=O)c1c(C)[nH]c(C)c1S(=O)(=O)NCc1ccccn1,-0.349
11,O=C(O)c1ccc(Oc2ccc(Oc3ccc(C(=O)O)c(C(=O)O)c3)cc2)cc1,-0.415
12,CCOc1ccc2c(=O)c(-c3ccccc3)c(C(F)(F)F)oc2c1,4.49
13,Cc1cccc(N2N=C(c3ccccc3)CC2c2ccccc2)c1 (stereo not drawn),-9.98
14,COc1nc(-c2ccccc2)cc(-c2ccccc2)n1,-3.77
15,CC1(C)CC(=O)c2cc(OCC(=O)O)ccc2O1,16.8
16,COc1cc(CNc2nc3c(C)cc(C)cc3s2)ccc1O,3.93
17,Cc1cc(C)n2nc(SCc3cc(=O)n4cc(Br)ccc4n3)nc2n1,-0.406
18,O=C1N/C(=C/c2cn(Cc3ccccc3)c3ccccc23)C(=O)N1Cc1ccccc1F,-5.51
19,Cc1cc(C)n2nc(SCC(=O)NC(C)CCc3ccccc3)nc2n1 (stereo not drawn),-2.26
20,COc1ccc(CCC(=O)Nc2ccc(CC#N)cc2)cc1,1.57
21,COc1ccc(S(=O)(=O)N2CCN(Cc3ccc(F)cc3)CC2)cc1,1.28
22,Cc1[nH]nc2c1C(c1ccc3ccccc3c1)C(C#N)=C(N)O2 (stereo not drawn),2.36
